{"sequences": {"note": "Amino acid sequences for entries named in this document (tags omitted). A change or cut given only in a name is not applied to a line headed by its entry. Residues count along the entry.", "UniProt Q14457": "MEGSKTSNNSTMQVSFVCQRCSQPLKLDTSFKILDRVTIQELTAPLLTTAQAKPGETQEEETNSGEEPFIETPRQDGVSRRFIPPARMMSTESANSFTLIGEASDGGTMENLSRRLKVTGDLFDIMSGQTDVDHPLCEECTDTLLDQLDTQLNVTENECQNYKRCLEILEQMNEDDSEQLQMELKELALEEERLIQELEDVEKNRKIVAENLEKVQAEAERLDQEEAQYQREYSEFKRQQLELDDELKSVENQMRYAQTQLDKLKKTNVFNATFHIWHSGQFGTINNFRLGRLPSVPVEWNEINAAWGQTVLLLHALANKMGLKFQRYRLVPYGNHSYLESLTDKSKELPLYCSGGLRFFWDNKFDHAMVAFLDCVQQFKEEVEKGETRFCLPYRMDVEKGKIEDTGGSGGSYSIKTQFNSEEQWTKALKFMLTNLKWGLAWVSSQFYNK", "GST-Beclin 1^141–450 (which lacks the BH3 domain)": "residues 141-450 of Q14457", "GST-Beclin 1^248–450 (which lacks both the BH3 and coiled-coil (CC) domains)": "residues 248-450 of Q14457", "GST-Beclin 1^350–450 (which consists of the BARA domain)": "residues 350-450 of Q14457", "GST-Beclin 1^350–400": "residues 350-400 of Q14457", "GST-Beclin 1^400–450": "residues 400-450 of Q14457", "UniProt Q99570": "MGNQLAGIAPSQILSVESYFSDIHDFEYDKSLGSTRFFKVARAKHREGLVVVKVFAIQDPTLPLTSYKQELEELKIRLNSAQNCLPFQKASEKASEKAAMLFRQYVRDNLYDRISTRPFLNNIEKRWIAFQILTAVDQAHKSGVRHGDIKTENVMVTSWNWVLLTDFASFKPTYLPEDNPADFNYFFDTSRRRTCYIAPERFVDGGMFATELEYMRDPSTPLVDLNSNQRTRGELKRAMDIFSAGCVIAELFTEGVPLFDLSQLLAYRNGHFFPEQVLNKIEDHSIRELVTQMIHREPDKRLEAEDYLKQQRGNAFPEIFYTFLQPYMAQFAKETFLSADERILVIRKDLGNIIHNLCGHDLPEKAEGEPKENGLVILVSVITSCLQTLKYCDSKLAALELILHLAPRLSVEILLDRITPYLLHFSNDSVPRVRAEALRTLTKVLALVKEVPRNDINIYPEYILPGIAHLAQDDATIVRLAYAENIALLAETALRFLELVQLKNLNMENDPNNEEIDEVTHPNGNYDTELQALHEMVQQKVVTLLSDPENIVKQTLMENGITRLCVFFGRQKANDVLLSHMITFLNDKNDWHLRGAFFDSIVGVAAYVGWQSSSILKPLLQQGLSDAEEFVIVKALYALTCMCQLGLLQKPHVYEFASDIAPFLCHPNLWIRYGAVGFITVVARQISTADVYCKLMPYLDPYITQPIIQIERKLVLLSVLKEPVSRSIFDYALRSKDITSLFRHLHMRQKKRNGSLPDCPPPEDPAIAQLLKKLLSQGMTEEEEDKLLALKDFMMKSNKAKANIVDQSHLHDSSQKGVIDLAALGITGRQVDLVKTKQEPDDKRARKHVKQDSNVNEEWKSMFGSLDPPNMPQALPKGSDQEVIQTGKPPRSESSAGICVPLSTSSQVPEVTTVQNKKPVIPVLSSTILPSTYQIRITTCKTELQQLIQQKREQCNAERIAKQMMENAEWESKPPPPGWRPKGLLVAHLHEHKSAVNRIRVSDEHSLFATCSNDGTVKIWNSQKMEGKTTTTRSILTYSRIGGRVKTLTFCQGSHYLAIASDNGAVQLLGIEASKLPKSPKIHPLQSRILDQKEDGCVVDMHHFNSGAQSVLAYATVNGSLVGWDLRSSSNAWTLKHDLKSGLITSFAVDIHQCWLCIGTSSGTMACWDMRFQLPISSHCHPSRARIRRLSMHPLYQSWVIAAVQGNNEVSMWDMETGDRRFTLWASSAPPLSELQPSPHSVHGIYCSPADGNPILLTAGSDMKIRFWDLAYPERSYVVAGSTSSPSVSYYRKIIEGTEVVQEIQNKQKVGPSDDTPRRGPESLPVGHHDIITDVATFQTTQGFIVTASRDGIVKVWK", "UniProt Q6ZNE5": "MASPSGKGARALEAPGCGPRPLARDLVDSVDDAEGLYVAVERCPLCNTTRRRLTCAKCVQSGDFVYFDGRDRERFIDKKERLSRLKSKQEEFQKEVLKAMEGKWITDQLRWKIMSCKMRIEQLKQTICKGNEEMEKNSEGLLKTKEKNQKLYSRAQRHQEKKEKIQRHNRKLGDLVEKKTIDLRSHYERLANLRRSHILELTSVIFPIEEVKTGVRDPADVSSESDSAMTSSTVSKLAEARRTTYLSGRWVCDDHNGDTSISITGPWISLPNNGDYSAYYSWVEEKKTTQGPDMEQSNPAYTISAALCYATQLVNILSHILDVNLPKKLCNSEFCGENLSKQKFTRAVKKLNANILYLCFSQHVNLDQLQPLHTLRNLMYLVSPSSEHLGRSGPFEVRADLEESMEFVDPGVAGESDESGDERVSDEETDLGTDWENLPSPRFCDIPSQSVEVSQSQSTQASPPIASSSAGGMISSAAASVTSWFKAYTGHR", "UniProt Q8NEB9": "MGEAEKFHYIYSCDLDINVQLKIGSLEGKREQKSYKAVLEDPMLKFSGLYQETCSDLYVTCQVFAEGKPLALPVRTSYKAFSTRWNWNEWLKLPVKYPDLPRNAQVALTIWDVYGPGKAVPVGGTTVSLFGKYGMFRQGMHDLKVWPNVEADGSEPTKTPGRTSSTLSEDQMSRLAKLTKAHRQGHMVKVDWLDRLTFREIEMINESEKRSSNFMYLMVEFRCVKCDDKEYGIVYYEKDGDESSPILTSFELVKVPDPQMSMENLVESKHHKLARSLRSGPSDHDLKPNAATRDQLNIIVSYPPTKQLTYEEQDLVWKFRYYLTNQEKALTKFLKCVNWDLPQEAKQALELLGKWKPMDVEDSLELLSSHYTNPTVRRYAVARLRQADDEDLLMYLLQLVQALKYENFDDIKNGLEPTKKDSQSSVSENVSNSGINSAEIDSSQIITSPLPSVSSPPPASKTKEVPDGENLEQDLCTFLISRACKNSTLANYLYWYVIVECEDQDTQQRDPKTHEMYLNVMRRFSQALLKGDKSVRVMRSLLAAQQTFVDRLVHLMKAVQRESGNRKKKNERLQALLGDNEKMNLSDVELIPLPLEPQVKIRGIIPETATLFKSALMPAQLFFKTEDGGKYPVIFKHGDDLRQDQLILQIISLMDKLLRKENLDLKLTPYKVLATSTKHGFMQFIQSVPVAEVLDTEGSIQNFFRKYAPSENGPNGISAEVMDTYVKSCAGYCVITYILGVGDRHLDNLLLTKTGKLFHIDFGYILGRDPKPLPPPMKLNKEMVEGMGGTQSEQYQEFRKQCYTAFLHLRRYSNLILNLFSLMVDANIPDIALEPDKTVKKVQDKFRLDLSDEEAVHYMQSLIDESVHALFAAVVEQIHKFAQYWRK", "UniProt Q91XJ1": "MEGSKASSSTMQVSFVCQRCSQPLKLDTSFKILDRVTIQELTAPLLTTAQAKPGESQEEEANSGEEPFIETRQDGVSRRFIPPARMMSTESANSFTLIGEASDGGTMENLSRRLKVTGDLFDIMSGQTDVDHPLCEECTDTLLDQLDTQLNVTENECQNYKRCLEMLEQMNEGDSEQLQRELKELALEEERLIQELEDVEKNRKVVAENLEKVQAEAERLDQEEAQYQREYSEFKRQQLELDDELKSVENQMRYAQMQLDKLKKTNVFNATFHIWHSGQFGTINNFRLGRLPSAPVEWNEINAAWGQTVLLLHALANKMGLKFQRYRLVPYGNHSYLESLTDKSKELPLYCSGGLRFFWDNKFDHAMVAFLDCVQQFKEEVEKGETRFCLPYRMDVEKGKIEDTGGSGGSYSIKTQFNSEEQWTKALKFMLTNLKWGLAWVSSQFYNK"}, "source": "paper PMC11763304", "binders": {"B1": {"name": "FE65 (wild-type, pCI-FE65wt) (protein, UniProt O00213 1-710)", "chain": "MSVPSSLSQSAINANSHGGPALSLPLPLHAAHNQLLNAKLQATAVGPKDLRSAMGEGGGPEPGPANAKWLKEGQNQLRRAATAHRDQNRNVTLTLAEEASQEPEMAPLGPKGLIHLYSELELSAHNAANRGLRGPGLIISTQEQGPDEGEEKAAGEAEEEEEDDDDEEEEEDLSSPPGLPEPLESVEAPPRPQALTDGPREHSKSASLLFGMRNSAASDEDSSWATLSQGSPSYGSPEDTDSFWNPNAFETDSDLPAGWMRVQDTSGTYYWHIPTGTTQWEPPGRASPSQGSSPQEESQLTWTGFAHGEGFEDGEFWKDEPSDEAPMELGLKEPEEGTLTFPAQSLSPEPLPQEEEKLPPRNTNPGIKCFAVRSLGWVEMTEEELAPGRSSVAVNNCIRQLSYHKNNLHDPMSGGWGEGKDLLLQLEDETLKLVEPQSQALLHAQPIISIRVWGVGRDSGRERDFAYVARDKLTQMLKCHVFRCEAPAKNIATSLHEICSKIMAERRNARCLVNGLSLDHSKLVDVPFQVEFPAPKNELVQKFQVYYLGNVPVAKPVGVDVINGALESVLSSSSREQWTPSHVSVAPATLTILHQQTEAVLGECRVRFLSFLAVGRDVHTFAFIMAAGPASFCCHMFWCEPNAASLSEAVQAACMLRYQKCLDARSQASTSCLPAPPAESVARRVGWTVRRGVQSLWGSLKPKRLGAHTP"}, "B2": {"name": "myc-FE65^ΔPTB1 (deleting amino acids 368–530) (protein, UniProt O00213)", "chain": "MSVPSSLSQSAINANSHGGPALSLPLPLHAAHNQLLNAKLQATAVGPKDLRSAMGEGGGPEPGPANAKWLKEGQNQLRRAATAHRDQNRNVTLTLAEEASQEPEMAPLGPKGLIHLYSELELSAHNAANRGLRGPGLIISTQEQGPDEGEEKAAGEAEEEEEDDDDEEEEEDLSSPPGLPEPLESVEAPPRPQALTDGPREHSKSASLLFGMRNSAASDEDSSWATLSQGSPSYGSPEDTDSFWNPNAFETDSDLPAGWMRVQDTSGTYYWHIPTGTTQWEPPGRASPSQGSSPQEESQLTWTGFAHGEGFEDGEFWKDEPSDEAPMELGLKEPEEGTLTFPAQSLSPEPLPQEEEKLPPRNTNPGIEFPAPKNELVQKFQVYYLGNVPVAKPVGVDVINGALESVLSSSSREQWTPSHVSVAPATLTILHQQTEAVLGECRVRFLSFLAVGRDVHTFAFIMAAGPASFCCHMFWCEPNAASLSEAVQAACMLRYQKCLDARSQASTSCLPAPPAESVARRVGWTVRRGVQSLWGSLKPKRLGAHTP"}, "B3": {"name": "myc-FE65 (protein, UniProt O00213 1-710)", "chain": "B1 chain"}, "B4": {"name": "FE65, endogenous in rat brain (protein, UniProt P46933 1-711)", "chain": "MSVPSSLSQSAINANSHGGPALSFPFPLHAAHNQLLNAKLQATAVVPKDLRSAMGEGSVPEPGPANAKWLKEGQNQLRRAATAHRDQNRNVTLTLAEEASQEAETAPLGPKGLMHLYSELELSAHNAANRGLHGSALIINTQGLGPDEGEEKAAGEVEEEDEDEEEEDEEEEDLSSPQGLPEPLENVEVPSGPQVLTDGPREHSKSASLLFGMRNSAASDEDSSWATLSQGSPSYGSPEDTDSFWNPNAFETDSDLPAGWMRVQDTSGTYYWHIPTGTTQWEPPGRASPSQGNSPQEESQLTWTGFAHQEGFEEGEFWKDEPSEEAPMELGLKDPEEGTLPFSAQSLSPEPVPQEEENLPQRNANPGIKCFAVRSLGWVEMTEEELAPGRSSVAVNNCIRQLSYHKNNLHDPMSGGWGEGKDLLLQLEDETLKLVEPQNQTLLHAQPIVSIRVWGVGRDSGRERDFAYVARDKLTQMLKCHVFRCEAPAKNIATSLHEICSKIMSERRNARCLVNGLSLDHSKLVDVPFQVEFPAPKNELVQKFQVYYLGNVPVAKPVGVDVINGALESVLSSSSREQWTPSHVSVAPATLTILHQQTEAVLGECRVRFLSFLAVGRDVHTFAFIMAAGPASFCCHMFWCEPNAASLSEAVQAACMLRYQKCLDARSQTSTSCLPAPPAESVARRVGWTVRRGVQSLWGSLKPKRLGSQTP"}, "B5": {"name": "myc-FE65^ΔNt (deleting amino acids 1–218) (domain or fragment, UniProt O00213 219-710)", "chain": "DEDSSWATLSQGSPSYGSPEDTDSFWNPNAFETDSDLPAGWMRVQDTSGTYYWHIPTGTTQWEPPGRASPSQGSSPQEESQLTWTGFAHGEGFEDGEFWKDEPSDEAPMELGLKEPEEGTLTFPAQSLSPEPLPQEEEKLPPRNTNPGIKCFAVRSLGWVEMTEEELAPGRSSVAVNNCIRQLSYHKNNLHDPMSGGWGEGKDLLLQLEDETLKLVEPQSQALLHAQPIISIRVWGVGRDSGRERDFAYVARDKLTQMLKCHVFRCEAPAKNIATSLHEICSKIMAERRNARCLVNGLSLDHSKLVDVPFQVEFPAPKNELVQKFQVYYLGNVPVAKPVGVDVINGALESVLSSSSREQWTPSHVSVAPATLTILHQQTEAVLGECRVRFLSFLAVGRDVHTFAFIMAAGPASFCCHMFWCEPNAASLSEAVQAACMLRYQKCLDARSQASTSCLPAPPAESVARRVGWTVRRGVQSLWGSLKPKRLGAHTP"}, "B6": {"name": "myc-FE65^ΔWW (deleting amino acids 248–290) (protein, UniProt O00213)", "chain": "MSVPSSLSQSAINANSHGGPALSLPLPLHAAHNQLLNAKLQATAVGPKDLRSAMGEGGGPEPGPANAKWLKEGQNQLRRAATAHRDQNRNVTLTLAEEASQEPEMAPLGPKGLIHLYSELELSAHNAANRGLRGPGLIISTQEQGPDEGEEKAAGEAEEEEEDDDDEEEEEDLSSPPGLPEPLESVEAPPRPQALTDGPREHSKSASLLFGMRNSAASDEDSSWATLSQGSPSYGSPEDTDSFWNPNGSSPQEESQLTWTGFAHGEGFEDGEFWKDEPSDEAPMELGLKEPEEGTLTFPAQSLSPEPLPQEEEKLPPRNTNPGIKCFAVRSLGWVEMTEEELAPGRSSVAVNNCIRQLSYHKNNLHDPMSGGWGEGKDLLLQLEDETLKLVEPQSQALLHAQPIISIRVWGVGRDSGRERDFAYVARDKLTQMLKCHVFRCEAPAKNIATSLHEICSKIMAERRNARCLVNGLSLDHSKLVDVPFQVEFPAPKNELVQKFQVYYLGNVPVAKPVGVDVINGALESVLSSSSREQWTPSHVSVAPATLTILHQQTEAVLGECRVRFLSFLAVGRDVHTFAFIMAAGPASFCCHMFWCEPNAASLSEAVQAACMLRYQKCLDARSQASTSCLPAPPAESVARRVGWTVRRGVQSLWGSLKPKRLGAHTP"}, "B7": {"name": "myc-FE65^ΔPTB2+Ct (deleting amino acids 518–710) (domain or fragment, UniProt O00213 1-517)", "chain": "MSVPSSLSQSAINANSHGGPALSLPLPLHAAHNQLLNAKLQATAVGPKDLRSAMGEGGGPEPGPANAKWLKEGQNQLRRAATAHRDQNRNVTLTLAEEASQEPEMAPLGPKGLIHLYSELELSAHNAANRGLRGPGLIISTQEQGPDEGEEKAAGEAEEEEEDDDDEEEEEDLSSPPGLPEPLESVEAPPRPQALTDGPREHSKSASLLFGMRNSAASDEDSSWATLSQGSPSYGSPEDTDSFWNPNAFETDSDLPAGWMRVQDTSGTYYWHIPTGTTQWEPPGRASPSQGSSPQEESQLTWTGFAHGEGFEDGEFWKDEPSDEAPMELGLKEPEEGTLTFPAQSLSPEPLPQEEEKLPPRNTNPGIKCFAVRSLGWVEMTEEELAPGRSSVAVNNCIRQLSYHKNNLHDPMSGGWGEGKDLLLQLEDETLKLVEPQSQALLHAQPIISIRVWGVGRDSGRERDFAYVARDKLTQMLKCHVFRCEAPAKNIATSLHEICSKIMAERRNARCLVNGLS"}}, "key": {"GST-Beclin 1^350–400": {"molecular_target": "GST-Beclin 1^350–400 (UniProt Q14457)", "test": "pull-down; bacterially expressed, purified GST-tagged bait on glutathione-Sepharose 4B, incubated in transfected cell lysate overnight at 4 °C; lysis buffer 50 mM Tris-HCl pH 7.5, 150 mM NaCl, 1 mM EDTA, 1% Triton X-100; three washes; Western blot; only the target purified"}, "GST-Beclin 1": {"molecular_target": "GST-Beclin 1 (UniProt Q14457)", "test": "pull-down; bacterially expressed, purified GST-tagged bait on glutathione-Sepharose 4B, incubated in transfected cell lysate overnight at 4 °C; lysis buffer 50 mM Tris-HCl pH 7.5, 150 mM NaCl, 1 mM EDTA, 1% Triton X-100; three washes; Western blot; only the target purified"}, "[1]": {"molecular_target": "GST-Beclin 1^350–450 (which consists of the BARA domain) (UniProt Q14457)", "test": "pull-down; bacterially expressed, purified GST-tagged bait on glutathione-Sepharose 4B, incubated in transfected cell lysate overnight at 4 °C; lysis buffer 50 mM Tris-HCl pH 7.5, 150 mM NaCl, 1 mM EDTA, 1% Triton X-100; three washes; Western blot; only the target purified"}, "GST-Beclin 1^400–450": {"molecular_target": "GST-Beclin 1^400–450 (UniProt Q14457)", "test": "pull-down; bacterially expressed, purified GST-tagged bait on glutathione-Sepharose 4B, incubated in transfected cell lysate overnight at 4 °C; lysis buffer 50 mM Tris-HCl pH 7.5, 150 mM NaCl, 1 mM EDTA, 1% Triton X-100; three washes; Western blot; only the target purified"}, "[2]": {"molecular_target": "GST-Beclin 1^141–450 (which lacks the BH3 domain) (UniProt Q14457)", "test": "pull-down; bacterially expressed, purified GST-tagged bait on glutathione-Sepharose 4B, incubated in transfected cell lysate overnight at 4 °C; lysis buffer 50 mM Tris-HCl pH 7.5, 150 mM NaCl, 1 mM EDTA, 1% Triton X-100; three washes; Western blot; only the target purified"}, "[3]": {"molecular_target": "GST-Beclin 1^248–450 (which lacks both the BH3 and coiled-coil (CC) domains) (UniProt Q14457)", "test": "pull-down; bacterially expressed, purified GST-tagged bait on glutathione-Sepharose 4B, incubated in transfected cell lysate overnight at 4 °C; lysis buffer 50 mM Tris-HCl pH 7.5, 150 mM NaCl, 1 mM EDTA, 1% Triton X-100; three washes; Western blot; only the target purified"}, "FLAG-tagged Beclin 1 [4]": {"molecular_target": "FLAG-tagged Beclin 1 (UniProt Q14457)", "test": "co-IP; HEK293 cells co-transfected; bait immunoprecipitated from cleared lysate with anti-FLAG (M2) or anti-HA (12CA5) overnight at 4 °C, Protein A agarose; control mouse IgG; FE65 detected with anti-FE65 (E20) or anti-myc"}, "FLAG-tagged Beclin 1 [5]": {"molecular_target": "FLAG-tagged Beclin 1 (UniProt Q14457)", "test": "proximity ligation; Duolink in situ PLA in transfected, fixed HEK293 cells; goat anti-FE65 (E20) and mouse anti-FLAG (M2); PLA signals per cell"}, "FLAG-VPS15": {"molecular_target": "FLAG-VPS15 (UniProt Q99570)", "test": "co-IP; HEK293 cells co-transfected; bait immunoprecipitated from cleared lysate with anti-FLAG (M2) or anti-HA (12CA5) overnight at 4 °C, Protein A agarose; control mouse IgG; FE65 detected with anti-FE65 (E20) or anti-myc"}, "FLAG-ATG14L": {"molecular_target": "FLAG-ATG14L (UniProt Q6ZNE5)", "test": "co-IP; HEK293 cells co-transfected; bait immunoprecipitated from cleared lysate with anti-FLAG (M2) or anti-HA (12CA5) overnight at 4 °C, Protein A agarose; control mouse IgG; FE65 detected with anti-FE65 (E20) or anti-myc"}, "HA-VPS34": {"molecular_target": "HA-VPS34 (UniProt Q8NEB9)", "test": "co-IP; HEK293 cells co-transfected; bait immunoprecipitated from cleared lysate with anti-FLAG (M2) or anti-HA (12CA5) overnight at 4 °C, Protein A agarose; control mouse IgG; FE65 detected with anti-FE65 (E20) or anti-myc"}, "[6]": {"molecular_target": "Beclin 1, endogenous in rat brain (rat (endogenous in rat brain)) (UniProt Q91XJ1)", "test": "co-IP; rat brain lysate; endogenous Beclin 1 immunoprecipitated with anti-Beclin 1 (Proteintech); FE65 detected with anti-FE65 (E20)"}}, "note": "These are yes or no findings as the source states them, for the method shown. Binding seen in cells or lysates may run through a third protein. Some entries that bind do so weakly or less than the wild type. For some assays here: Sequences can lack the tags named with a protein.", "data": [{"binder": "B1", "values": [{"measurement": "binding", "setting": "GST-Beclin 1^350–400", "value": "binds"}, {"measurement": "binding", "setting": "GST-Beclin 1", "value": "binds"}, {"measurement": "binding", "setting": "[1]", "value": "binds"}, {"measurement": "binding", "setting": "GST-Beclin 1^400–450", "value": "no binding"}, {"measurement": "binding", "setting": "[2]", "value": "binds"}, {"measurement": "binding", "setting": "[3]", "value": "binds"}, {"measurement": "binding", "setting": "FLAG-tagged Beclin 1 [4]", "value": "binds"}, {"measurement": "binding", "setting": "FLAG-tagged Beclin 1 [5]", "value": "binds"}]}, {"binder": "B2", "values": [{"measurement": "binding", "setting": "FLAG-tagged Beclin 1 [4]", "value": "binds"}]}, {"binder": "B3", "values": [{"measurement": "binding", "setting": "FLAG-tagged Beclin 1 [4]", "value": "binds"}, {"measurement": "binding", "setting": "FLAG-VPS15", "value": "no binding"}, {"measurement": "binding", "setting": "FLAG-ATG14L", "value": "no binding"}, {"measurement": "binding", "setting": "HA-VPS34", "value": "no binding"}]}, {"binder": "B4", "values": [{"measurement": "binding", "setting": "[6]", "value": "binds"}]}, {"binder": "B5", "values": [{"measurement": "binding", "setting": "FLAG-tagged Beclin 1 [4]", "value": "binds"}]}, {"binder": "B6", "values": [{"measurement": "binding", "setting": "FLAG-tagged Beclin 1 [4]", "value": "binds"}]}, {"binder": "B7", "values": [{"measurement": "binding", "setting": "FLAG-tagged Beclin 1 [4]", "value": "no binding"}]}]}
